The values below come from a collection of fitness landscapes (doi:10.1126/science.1257360).

The other results are listed elsewhere or left out.

B1: PhoQ; a variant is named by its letters at X, in order, P23837 (parent)
chain: MKKLLRLFFPLSLRVRFLLATAAVVLVLSLAYGMVALIGYSVSFDKTTFRLLRGESNLFYTLAKWENNKLHVELPENIDKQSPTMTLIYDENGQLLWAQRDVPWLMKMIQPDWLKSNGFHEIEADVNDTSLLLSGDHSIQQQLQEVREDDDDAEMTHSVAVNVYPATSRMPKLTIVVVDTIPVELKSSYMVWSWFIYVLSANLLLVIPLLWVAAWWSLRPIEALAKEVRELEEHNRELLNPATTRELTSLVRNLNRLLKSERERYDKYRTTLTDLTHSLKTPLXXLQXXLRSLRSEKMSVSDAEPVMLEQISRISQQIGYYLHRASMRGGTLLSRELHPVAPLLDNLTSALNKVYQRKGVNISLDISPEISFVGEQNDFVEVMGNVLDNACKYCLEFVEISARQTDEHLYIVVEDDGPGIPLSKREVIFDRGQRVDTLRPGQGVGLAVAREITEQYEGKIVAGESMLGGARMEVIFGRQHSAPKDE

This experiment covers variants of B1. Nature of the experiment: enrichment ratio after two sorts for PhoP signalling (ratio (wild type AVST 3.29)); higher = more functional. The conditions noted are these: with PhoP (E. coli).
Consider ESPN, for which the enrichment ratio is at most 0.25.

In the case of KRHC, the enrichment ratio is at most 0.25. The value for RLRN was at most 0.25. Turning to MHCI, the enrichment ratio is at most 0.25. The value for WVWH was at most 0.25.

VNVL: the enrichment ratio worked out at 1.76.

Take LTGY: the enrichment ratio is at most 0.25.

On to LNLH, for which the enrichment ratio was at most 0.25. Consider NITV, for which the enrichment ratio is at most 0.25. The value for TESF was 11.5; that for TIQH was 12.6. The value for EGHY was at most 0.25. With FKRY the figure was at most 0.25; with IDGA, at most 0.25; with IRFR, at most 0.25. For the variant SKVE, the enrichment ratio was found to be 0.353. In the case of AMVC, the enrichment ratio is at most 0.25. Consider TNDV, for which the enrichment ratio was at most 0.25.

As to IAGF, the enrichment ratio was at most 0.25. The value for VPRC was at most 0.25; that for GLFE was at most 0.25. The value for FNEH was at most 0.25; that for SFAK was at most 0.25. With MDWV the figure was at most 0.25. Consider FRTE, for which the enrichment ratio was at most 0.25. SRCS: the enrichment ratio is at most 0.25. For the variant WQLK, the enrichment ratio is at most 0.25. Turning to GHLH, the enrichment ratio was at most 0.25. The value for ERHM was at most 0.25; that for VAQS was at most 0.25. Take RTKW: the enrichment ratio is at most 0.25. With FLYW the figure was at most 0.25. With TLTR the figure was at most 0.25; with SVAF, 9.78; with ADPC, at most 0.25. On to SSTH, for which the enrichment ratio is 6.16. The value for GMPW was at most 0.25; that for NCLN was at most 0.25.

On to VWHV, for which the enrichment ratio was at most 0.25. Regarding VTDN, the enrichment ratio was at most 0.25. With QGPE the figure was at most 0.25. For the variant ENQT, the enrichment ratio is at most 0.25. Take HGTE: the enrichment ratio was at most 0.25. The value for MQGA was at most 0.25; that for PELY was at most 0.25. The value for QQIT was at most 0.25; that for MTAQ was 3.04. ITVG: the enrichment ratio was at most 0.25.

On to DTRV, for which the enrichment ratio was at most 0.25. Consider TGHN, for which the enrichment ratio turned out to be 5.44.

For MASH, the enrichment ratio is at most 0.25. As to ATTL, the enrichment ratio was determined as 9.83. The value for ISYT was at most 0.25. Regarding PGIK, the enrichment ratio was at most 0.25. For the variant FRKA, the enrichment ratio is at most 0.25. With KQDG the figure was at most 0.25.

With HMSI, the enrichment ratio was at most 0.25.

For DHWG, the enrichment ratio is at most 0.25. With MEIT the figure was 1.69; with KTDR, at most 0.25; with WFYF, at most 0.25.

In the case of DQGR, the enrichment ratio was at most 0.25.

With KCGR, the enrichment ratio was at most 0.25.

Turning to KNDM, the enrichment ratio was at most 0.25. With MERL the figure was at most 0.25; with ISHQ, at most 0.25. With NKVK the figure was at most 0.25; with DSED, at most 0.25; with WLFG, at most 0.25.

As to SFEI, the enrichment ratio is at most 0.25. Turning to KRHA, the enrichment ratio is at most 0.25. For FFGW, the enrichment ratio was at most 0.25. On to HSMP, for which the enrichment ratio is at most 0.25. The value for GEKL was at most 0.25. As to KNYV, the enrichment ratio was at most 0.25.

Consider GPFV, for which the enrichment ratio is at most 0.25. Turning to GWQY, the enrichment ratio was at most 0.25.

Take KAVD: the enrichment ratio was at most 0.25. The value for GGQY was at most 0.25; that for RERF was at most 0.25. The value for KLLD was at most 0.25; that for KCCM was at most 0.25; that for FNAH was at most 0.25.

Turning to WTLY, the enrichment ratio was at most 0.25. With NAED the figure was at most 0.25; with PKMW, at most 0.25; with LSET, at most 0.25. As to SPTC, the enrichment ratio is at most 0.25.

As for EIPI, the enrichment ratio is at most 0.25.

With ECVS, the enrichment ratio is at most 0.25. Take HYNP: the enrichment ratio is at most 0.25. With LQIC the figure was at most 0.25; with STTD, at most 0.25. MKLY: the enrichment ratio is at most 0.25.

With LPDA, the enrichment ratio is at most 0.25.

On to ARKL, for which the enrichment ratio was at most 0.25. As to KRLM, the enrichment ratio was at most 0.25. NWKD: the enrichment ratio is at most 0.25.

RQIA: the enrichment ratio was at most 0.25. Consider HRFP, for which the enrichment ratio is at most 0.25. Consider RWHE, for which the enrichment ratio was at most 0.25.

For the variant FYTT, the enrichment ratio is at most 0.25. Consider FDCE, for which the enrichment ratio is at most 0.25.

HGEK: the enrichment ratio was at most 0.25.

Take DHPA: the enrichment ratio was at most 0.25.

With LMPC, the enrichment ratio is at most 0.25. With WLTL the figure was 0.379; with TFCL, 5.44; with MWYY, at most 0.25. The value for PQTG was at most 0.25.

For the variant NMQP, the enrichment ratio was at most 0.25. For the variant RCVF, the enrichment ratio is at most 0.25. WLVP: the enrichment ratio was at most 0.25. The value for TCGC was 23.2; that for VWRT was at most 0.25.

For LQFQ, the enrichment ratio was determined as 0.522. As for VVYC, the enrichment ratio was at most 0.25. The value for SERI was at most 0.25; that for RIYC was at most 0.25; that for RKIE was at most 0.25. The value for DKTC was at most 0.25. The value for FYRL was at most 0.25. For the variant MVAP, the enrichment ratio is at most 0.25. Turning to YDNQ, the enrichment ratio is at most 0.25. With CTCF the figure was at most 0.25; with TFFI, at most 0.25. The value for MQMG was at most 0.25; that for NQNI was at most 0.25; that for GKYT was at most 0.25. The value for TNVA was at most 0.25; that for IIYV was at most 0.25. With KRDM, the enrichment ratio was at most 0.25. The value for MFTW was at most 0.25. As to MWVC, the enrichment ratio is at most 0.25.

As to IWNL, the enrichment ratio is at most 0.25.

With FYQY, the enrichment ratio is at most 0.25. For the variant ISGE, the enrichment ratio is at most 0.25.

As for HYFW, the enrichment ratio is at most 0.25.

On to SQKD, for which the enrichment ratio is at most 0.25. Regarding FARV, the enrichment ratio was at most 0.25. With ISSR the figure was at most 0.25. With RMDG the figure was at most 0.25; with THEE, at most 0.25; with TIQY, 7.51. The value for QMCG was at most 0.25; that for RMSK was at most 0.25; that for GGCK was at most 0.25. In the case of QKYI, the enrichment ratio is at most 0.25. With GRMR the figure was at most 0.25; with FSCI, 7.45; with SWEN, at most 0.25. On to HQNN, for which the enrichment ratio was at most 0.25. Consider LYPG, for which the enrichment ratio was at most 0.25.
